Test results taken from publication PMC4336329 (PLoS ONE, 2015).
Among all 310,000 compounds or so, about 2,200 (0.71%) showed an effect of 50% or more. Effects have a minus sign here. The list shows a part of the results.

molecular target: human ether-à-go-go-related gene (hERG) potassium channel (human, UniProt Q12809); experiment: primary screen, population patch clamp on CHO cells stably expressing hERG
Sequence (Q12809 whole entry, looked up): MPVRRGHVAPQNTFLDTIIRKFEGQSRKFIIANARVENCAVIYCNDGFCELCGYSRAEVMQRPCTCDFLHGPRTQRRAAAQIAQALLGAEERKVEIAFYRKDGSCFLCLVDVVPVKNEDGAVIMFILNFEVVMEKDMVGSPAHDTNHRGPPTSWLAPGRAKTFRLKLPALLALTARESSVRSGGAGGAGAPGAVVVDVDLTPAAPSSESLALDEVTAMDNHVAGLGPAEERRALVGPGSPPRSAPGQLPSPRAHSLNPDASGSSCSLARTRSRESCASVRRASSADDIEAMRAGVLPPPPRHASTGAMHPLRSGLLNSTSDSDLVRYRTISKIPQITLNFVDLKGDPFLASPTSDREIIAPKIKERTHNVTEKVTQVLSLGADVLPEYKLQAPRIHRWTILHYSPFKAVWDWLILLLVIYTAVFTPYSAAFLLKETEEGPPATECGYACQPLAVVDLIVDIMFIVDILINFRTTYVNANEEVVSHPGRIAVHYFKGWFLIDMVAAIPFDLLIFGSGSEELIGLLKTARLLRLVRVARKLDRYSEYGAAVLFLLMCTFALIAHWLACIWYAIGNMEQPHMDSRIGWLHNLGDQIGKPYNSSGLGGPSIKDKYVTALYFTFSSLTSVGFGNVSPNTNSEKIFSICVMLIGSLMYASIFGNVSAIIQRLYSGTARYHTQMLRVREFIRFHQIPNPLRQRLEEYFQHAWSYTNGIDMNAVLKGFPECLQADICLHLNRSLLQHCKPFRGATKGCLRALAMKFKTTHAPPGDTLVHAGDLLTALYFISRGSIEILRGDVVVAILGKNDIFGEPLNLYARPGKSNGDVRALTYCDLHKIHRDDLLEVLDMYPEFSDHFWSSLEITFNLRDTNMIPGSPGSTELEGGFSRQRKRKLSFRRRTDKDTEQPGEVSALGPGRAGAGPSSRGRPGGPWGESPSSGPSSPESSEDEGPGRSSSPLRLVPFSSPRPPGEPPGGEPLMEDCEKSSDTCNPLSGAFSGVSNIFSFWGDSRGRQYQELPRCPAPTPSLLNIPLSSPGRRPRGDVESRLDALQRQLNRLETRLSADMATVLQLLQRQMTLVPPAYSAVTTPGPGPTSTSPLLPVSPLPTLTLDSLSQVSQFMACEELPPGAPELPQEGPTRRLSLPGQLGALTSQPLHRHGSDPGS

| SMILES | hERG current change (%, negative = inhibition) at 1uM |
| --- | --- |
| COc1cc(NC(=O)CCN2CCN(c3ccccc3F)CC2)cc(OC)c1 | -7.08% |
| O=C(NCCc1ccccn1)c1cc(-c2ccc(Cl)cc2)nc2ccccc12 | 10.7% |
| NN=C(c1ccccc1)c1ccccc1 | 13% |
| Nc1nc2ncc(C(=O)c3cc(F)ccc3O)cc2s1 | 5.05% |
| CCC(CC)c1nc2ccccc2c(=O)[nH]1 | 2.78% |
| Cc1ccc(C)c(N2CC(C(=O)Nc3cc(C)on3)CC2=O)c1 (stereo not shown) | 6.94% |
| CCC(C)Sc1cccc(-c2nc3ccc(C)cn3c2NC2CCCCC2)c1.O=C(O)C(F)(F)F (stereo not shown) | 15.9% |
| CCN(C(=O)CSc1nnc(Nc2ccccc2)s1)C1CCS(=O)(=O)C1 (stereo not shown) | -3.14% |
| CCC(Oc1ccccc1)C(=O)NCc1ccc(S(N)(=O)=O)cc1 (stereo not shown) | -0.774% |
| CCOC(=O)C1=C[C@]2(CC)CCCN3CCc4c(n1c1ccccc41)[C@@H]32 | -95.5% |
| COc1cc(SC)ccc1C(=O)Nc1nc2ccccc2[nH]1 | 11.2% |
| CCN1CCN(c2cc(C)c3cc(NC(=O)Cc4ccccc4OC)ccc3n2)CC1 | -16.1% |
| Cc1csc(NC(=O)/C=C/c2ccc(C)o2)n1 | 24.8% |
| Cc1nn(CC(=O)NC(C)c2ccccc2)c(C)c1[N+](=O)[O-] (stereo not shown) | 5.15% |
| COC(=O)C1CCN(C(=O)CSc2ccccc2)CC1 | 4.36% |
| CCOc1ccc(C2C3=C(CCCC3=O)N(CC(=O)O)C3=C2C(=O)CCC3)cc1 | 9.15% |
| CC(C)OC(=O)c1ccc(NC(=O)c2ccccc2)cc1 | 9.37% |
| CCOc1ccc2nc(NC(=O)C3=NNC(=O)CC3)sc2c1 | 9.84% |
| Cc1ccc(CC2S/C(=C(/C#N)C(=O)NCc3ccco3)N(c3ccccc3)C2=O)cc1 (stereo not shown) | 14.8% |
| COc1ccc(CNC(=O)C(c2ccc(C)o2)N(C(=O)c2snc(C(N)=O)c2N)c2ccccc2OC)cc1 (stereo not shown) | 12.5% |
| O=c1[nH]c(CN2CCOCC2)nc2scc(-c3ccccc3)c12 | 14% |
| Cc1cc(C)c(S(C)(=O)=O)c(Oc2cccc(C(F)(F)F)c2)n1 | 13.4% |
| O=C(NNC(=O)c1cc(-c2cccnc2)nc2ccccc12)Nc1ccc(Cl)cc1 | -6.26% |
| O=C(NC1CC1)c1ccc(F)cc1Cl | 14.2% |
| Cc1ccc(-n2nc(C)c(NC(=O)CCl)c2C)cc1 | 2.44% |
